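Each compound was tested at five concentrations against cells in 96-well plates for 48 hours. GI50 = concentration required for 50% inhibition of growth.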 The source made the active and inactive calls. Rule as the data show it: active = GI50 up to about 1.1 µM and inactive = higher.

The test system of this test is NCI-H322M. The experiment in a line: growth of human tumour cells (NCI), 48 h.
With `O=C1c2ccccc2-c2ccc(N(Cc3ccc(Br)cc3)Cc3ccc(Br)cc3)cc21`, the GI50 was inactive: > 100 µM.

In the case of `Oc1c(C(Nc2cccc3cccnc23)c2ccccc2)ccc2cccnc12` (centres undefined), the GI50 was inactive: > 100 µM.

As to `COc1cccc2c(Nc3ccc(S(=O)(=O)Nc4ncccn4)cc3)c3ccc([N+](=O)[O-])cc3nc12`, the GI50 was inactive: > 100 µM. The figure for `O=c1[nH]c(=O)n(C2OC(CO)C(O)C2O)c2c1CCCC2` (centres undefined) is inactive: > 100 µM; for `CC(C)(C)C(=O)Oc1ccc(/C=C/C(=O)c2ccc(OC(=O)C(C)(C)C)cc2)cc1` it is inactive: > 100 µM; for `COC(=O)[C@]1(C)C(OC)=CC(=O)C2C1[C@H]1CCC[C@@H]21` (some centres undefined) it is inactive: > 100 µM. As to `COC(=O)CCC(=O)CC(=O)C1=NS(=O)(=O)c2nc(S(N)(=O)=O)c(Cl)cc2N1`, the GI50 is inactive: > 100 µM. Take `CCOc1ccc2c(C)cc(=O)oc2c1`: the GI50 was inactive: > 100 µM. In the case of `COc1cc(/C=C2\N=C(c3ccccc3)N(C3Nc4cc5c(cc4S3)NC(N3C(=O)/C(=C/c4cc(OC)c(OC)c(OC)c4)N=C3c3ccccc3)S5)C2=O)cc(OC)c1OC` (centres undefined), the GI50 was inactive: > 100 µM. As to `O=C1N=C2N=C(c3ccc(Cl)cc3)N(c3ccc(Cl)cc3)N2Sc2ccccc21`, the GI50 was inactive: 57.1 µM.

Consider `Cc1cccc(NC2=NC(=O)C(CC(=O)Nc3cccc(C)c3C)S2)c1` (centres undefined), for which the GI50 was inactive: > 100 µM. With `CC1Cc2c(cc(N)nc2Br)NC1=O` (centres undefined), the GI50 was inactive: > 100 µM. Under `C[C@@H](O)C(=O)N1[C@@H]2CC3CC[C@]2(CS1(=O)=O)C3(C)C` stands inactive: > 100 µM. The figure for `COC(=O)[C@H](Cc1ccccc1)NC(=O)N(CCNC(=O)OC(C)(C)C)c1ccccc1` is inactive: > 100 µM; for `C=C1OC(=O)[C@]2([C@@H](/C=C/C)C=CC(=O)[C@H]2O)[C@@H]1O` it is inactive: > 100 µM; for `COc1ccc(C(CC(=O)c2ccc(O)cc2)C(C(=O)c2ccc(O)cc2)C(c2ccc(OC)cc2)C2C(=O)NC(=S)NC2=O)cc1` (centres undefined) it is inactive: 20.3 µM.

As to `COc1cc2cc(C(=O)N3CC(CCl)c4ccc(NO)cc43)[nH]c2c(OC)c1OC` (centres undefined), the GI50 is active: 0.28 µM.

For the compound `COCCOC(=O)C(C)=[N+]=[N-]`, the GI50 was inactive: > 100 µM. As to `Cn1c2c(c3ccccc31)CCN=C2C1CCCOC1=O` (centres undefined), the GI50 was inactive: > 100 µM. In the case of `CC(Nc1ccc(S(=O)(=O)NC(=N)N)cc1)c1c2ccccc2nc2ccccc12` (centres undefined), the GI50 is inactive: 58.3 µM.

On to `Oc1cc(CN2COc3ccccc32)c(O)cc1CNC1CCCCC1`, for which the GI50 was inactive: 44.1 µM. Turning to `CN(C)CCSc1nccc(-c2ccc(-c3ccnc(SCCN(C)C)n3)s2)n1`, the GI50 was inactive: 8.15 µM. Turning to `Cc1cccc(Cl)c1NC(N)=S`, the GI50 is inactive: > 100 µM. Turning to `CCn1c(SCC(=O)N/N=C/c2ccccc2)nc2ccccc2c1=O`, the GI50 was inactive: 45.9 µM. In the case of `COC(=O)c1nn(C(=N)c2ccc(Cl)cc2)c2c1CCC2`, the GI50 is inactive: > 100 µM. Regarding `O=c1ccn(CC2(CO)CC(Cc3ccccc3)C2)c(=O)[nH]1` (centres undefined), the GI50 was inactive: > 100 µM. Turning to `COC(=O)[C@H](Cc1ccc(OC(C)(C)C)cc1)N[C@H](C)C(=O)N[C@@H](Cc1ccccc1)C(=O)OCc1ccccc1`, the GI50 was inactive: > 100 µM. With `NC(=O)[N+](=CC(=S)Nc1ccccc1Cl)C(N)=O`, the GI50 is inactive: > 100 µM. Under `CC(=O)OCc1ccc(-c2nc(C#N)c(N)o2)o1` stands inactive: > 10 µM; under `C=CCOC(=O)c1c(C)[n+]([O-])c2cc(Cl)c(Cl)cc2[n+]1[O-]`, inactive: 33.8 µM.

On to `Cn1nc(N)nc1N=S(C)(C)=N`, for which the GI50 is inactive: > 100 µM. Regarding `COCn1c(C)c(C)c2c(=O)oc(N(C)C)nc21`, the GI50 is inactive: > 100 µM. Under `COC(=O)C(NC(=O)OC(C)(C)C)P(=O)(OC)OC` (centres undefined) stands inactive: > 100 µM. As to `Cc1cc(C)n2c(-c3ccccc3)c(C)cc2n1`, the GI50 is inactive: 72.3 µM. Take `CCOC(=O)Cc1csc2[n+]1C(=O)/C(=C/c1cccc(OC)c1O)S2`: the GI50 was inactive: 89.9 µM.

Turning to `O=C(O)C1(Cc2ccccc2)Cc2ccccc2C1`, the GI50 is inactive: > 100 µM. With `CCOC(=O)CCC(NC(=O)c1ccc(Nc2nc3cc(C(F)(F)F)ccc3nc2C(=O)OCC)cc1)C(=O)OCC` (centres undefined), the GI50 is inactive: 11.1 µM. Under `CCOC(=O)C(C)Sc1nnc(COc2ccc(Cl)cc2)n1-c1ccccc1` (centres undefined) stands inactive: 27.7 µM.

For `CSc1nc2c(nc(N)n2C2OCC(O)C(O)C2O)c(=O)[nH]1` (centres undefined), the GI50 was inactive: > 100 µM. Take `Cc1cc(O)c(C(c2cccnc2)c2c(O)cc(C)[nH]c2=O)c(=O)[nH]1`: the GI50 is inactive: > 100 µM. As to `CC(=O)O[C@@H]1[C@@H](C)[C@]2(CC(c3ccoc3)OC2O)C2CCC3O[C@]3(C)[C@]2(C)[C@@H]1OC(C)=O` (some centres undefined), the GI50 is inactive: > 100 µM. Under `CC(SC(=S)N1CCOCC1)C(=O)Nc1nnc(-c2ccc(Cl)cc2)o1` (centres undefined) stands inactive: 48.4 µM. As to `CCOC(=O)C1=CC(C)(C(=O)OCC)Nc2c(nc(OC)[nH]c2=O)N1` (centres undefined), the GI50 is inactive: > 10 µM.

`COc1ccc(N2C(=O)C3c4[nH]c5ccc(OC)cc5c4C4CCC(C(C)C)CC4C3C2=O)cc1` (centres undefined): the GI50 is inactive: > 100 µM.

In the case of `CC1(C)CCCCCCC2CC2CCCCCC(C)(C)C1=O` (centres undefined), the GI50 is inactive: > 100 µM. `CC1CC2(S(=O)(=O)c3ccccc3)ON1CC2S(=O)(=O)c1ccccc1` (centres undefined): the GI50 was inactive: > 100 µM. `O=C(Cn1c2ccc(Br)cc2c2nc3ccccc3nc21)NCc1ccccc1`: the GI50 is inactive: > 100 µM.

On to `Cn1c(-c2cccs2)cc(-c2cccs2)c1-c1ccco1`, for which the GI50 is inactive: > 83.4 µM. Consider `O=c1[nH]c(NCc2ccncc2)nc2[nH]cnc12`, for which the GI50 was inactive: > 100 µM. With `Fc1ccc2nc3n(c2c1)C(c1c(F)cccc1F)SC3` (centres undefined), the GI50 is inactive: 97.9 µM. For the compound `O=C(O)CCC(NC(=O)c1ccc(Nc2nc3cc(C(F)(F)F)ccc3nc2C(=O)O)cc1)C(=O)O` (centres undefined), the GI50 was inactive: > 100 µM. Regarding `CC1CC(C[N+](=O)[O-])CC2(C1)OCCO2` (centres undefined), the GI50 was inactive: > 100 µM. Turning to `Cc1nc2c(cc1C(=O)N/N=C/c1ccc([N+](=O)[O-])cc1)c(=O)n(C)c(=O)n2C`, the GI50 was inactive: > 100 µM. In the case of `CCCCCNC(=O)c1c(O)[nH]c(=S)[nH]c1=O`, the GI50 was inactive: > 100 µM. Under `Cc1nn(-c2ccccc2)c(-c2ccccc2[N+](=O)[O-])c1CC#N` stands inactive: > 100 µM; under `CC(C)(/N=N/C(C)(C)C(=N)N)C(=N)N`, inactive: > 100 µM; under `O=C1Nc2ccc(Br)cc2/C1=N/c1ccc(Cl)cc1`, inactive: 30.8 µM. For the compound `C[C@H]1SC(c2ccc(Cl)cc2Cl)N(NC(=O)c2ccncc2)C1=O` (some centres undefined), the GI50 is inactive: > 10 µM.

As to `COC(=O)N[C@H](C(=O)NC(OCc1ccccc1)C1COC(C)(C)O1)C(C)O[Si](C)(C)C(C)(C)C` (some centres undefined), the GI50 is inactive: 61.1 µM.

Source of the values: ChEMBL document CHEMBL1201862, “PubChem BioAssay data set” (2004).
